Where no end group is shown, it is not given here. [ ]: non-standard residue; d: D form.
System: 8226 myeloma cells
Assay: Microtiter adhesion assay, adhesion of 8226 cells to fibronectin

kmviywkag ([dK][dM][dV][dI][dY][dW][dK][dA]G) [RZ-3]
effect on adhesion of 8226 cells to FN (1.25 μg/ml to 20 μg/ml, FIG. 24 and 25): effective in preventing FN adhesion
effect on adhesion of 8226 cells to FN (20 μg/ml to 100 μg/ml, FIG. 23): effective in preventing FN adhesion
